From PubChem BioAssay AID686971 (National Center for Advancing Translational Sciences (NCATS), 2013)
Screen size: about 360,000 compounds; about 7,500 (2.1%) were called active. The inconclusive results got no clear call from the source; some entries with a clear call stand among them for comparison. The call rests on the fitted dose curve; in most records, active means well fitted cell-killing curve with a large enough effect; inconclusive means small, poorly fitted or top-dose-only effect, or effect the other way, or another doubt; inactive means no such curve, though single readings can be large or run the other way. No potency is given beside an inconclusive call; the fits are too rough.

experiment: qHTS for induction of synthetic lethality in tumor cells producing 2HG: qHTS for the HT-1080-IDH1KD cell line; conditions: HT-1080 IDH1 knockdown viability, ATP luminescence, 48 h; activity, negative = toxicity: at 46.1 µM (top of the series) unless noted;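 on activity, negative = toxicity: 0% = DMSO wells and -100% = cell-free medium wells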
Procedure, shortened: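 Cytotoxicity counter-line: IDH1KD HT-1080, 48 h, CellTiter-Glo. Curves classed by r2, magnitude and activity.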
Potency means the concentration at half of the fitted maximal effect; tags describe the fitted curve by direction and shape.

| Compound | Potency | activity, negative = toxicity |
| --- | --- | --- |
| Cc1cccc(NS(=O)(=O)c2ccc(C3CCCCC3)cc2)c1 | inconclusive [cytotoxic, single point] | – |
| CC1CCN(S(=O)(=O)c2ccc(C(=O)Nc3ncccc3O)cc2)CC1 | inactive | – |
| CNS(=O)(=O)c1cccc(C(=O)OCC(=O)Nc2ccc3ccccc3c2)c1 | inactive | – |
| CC(C)(C)NC(=O)c1ccc2c(c1)N(CC(=O)N1CCN(c3ccccc3F)CC1)C(=O)C(C)(C)O2 | – | inconclusive: 31.4% |
| NC(N)=Nc1nc(-c2ccccc2)c2ccccc2n1 | active: 18.4 µM | – |
| CCN(CC)S(=O)(=O)c1ccc2[nH]c(=O)cc(C(=O)Nc3ccccc3N3CCCC3)c2c1 | inactive | – |
| CC(C)c1ccc(C(=O)Nc2ccc(CN3CCOCC3)cc2)cc1 | inactive | – |
| CCN(CC)S(=O)(=O)c1ccc(C)c(NC(=O)Cn2cnc3cc([N+](=O)[O-])ccc3c2=O)c1 | inactive | – |
| c1ccc(-c2csc(NNC3=NCCCCC3)n2)cc1 | inconclusive [cytotoxic, single point] | – |
| CCCc1cc(C(=O)N2CCN(c3ccc(C(F)(F)F)cn3)CC2)sc1C | inconclusive [cytotoxic, single point] | – |
| COc1cc(-c2coc3c(C(=O)NCc4ccc(N(C)C)cc4)cccc23)ccc1O | inconclusive [cytotoxic, single point] | – |
| C#CCOCCOCCOCCNc1nc(N2CCN(C(=O)CCCCCCCCCCNC(=O)Cn3cc(CCCCCN)nn3)CC2)nc(N2CCN(C(=O)CCCCCCCCCCNC(=O)Cn3cc(C[C@@H](C)O)nn3)CC2)n1 | inconclusive [cytotoxic, single point] | – |
| CC(C)c1nnc(NC(=O)c2cc3ccccc3o2)s1 | inconclusive [rising, partial curve] | – |
| COC(=O)C1=C(C)N(C)C(C)=C(C(=O)OC)C1c1ccc(Cl)cc1 | inactive | – |
| COc1cc2c(cc1OC)C(c1ccc(-c3ccc(Cl)cc3Cl)o1)=NCC2 | active: 23.1 µM | – |
| Cc1ccc(OCC(O)CN2CCCC2)cc1 (stereo not given) | inactive | – |
| CN(C)c1ccc(/C=C(/C(=O)c2ccc(Cl)cc2Cl)n2cncn2)cc1 | inconclusive [cytotoxic, single point] | – |
| O=C(N/N=C/c1cccc(OCC(=O)N2CCCC2)c1)C(=O)Nc1ccccc1F | inactive | – |
| CC(C)Oc1ccc(CCN=C(N)N=C(N)N)cc1Cl | active: 23.1 µM | – |
| Cc1cccc(NC(=S)NCCC(c2ccccc2)c2ccccc2)c1 | inactive | – |
| Cc1ccc(N=Cc2c(O)ccc3ccccc23)cc1F | inconclusive [cytotoxic, single point] | – |
| Cn1nc(C(F)(F)F)c2cc(NC(=O)OCc3ccc(F)cc3)sc21 | inconclusive [cytotoxic, single point] | – |
| Cc1cc(C)cc(N(CCC#N)C(=O)CSC2=Nc3ccccc3C3CC=NN23)c1 (stereo not given) | inconclusive [cytotoxic, partial curve] | – |

| Compound | Potency | activity, negative = toxicity |
| --- | --- | --- |
| Cc1ccc(-c2cc3nc(-c4ccc(Br)cc4)cc(N)n3n2)cc1 | inconclusive [cytotoxic, single point] | – |
| CCOc1ccc(S(=O)(=O)N2CCOCC2)cc1NC(=O)C1CCC1 | inactive | – |
| Cc1nn2c(C)c(C(=O)Nc3ccccc3)cnc2c1-c1ccccc1 | inactive | – |
| Cc1ccccc1N(C(=O)CNC(=O)c1ccco1)C(C(=O)NC1CCCCC1)c1ccncc1 (stereo not given) | inactive | – |
| CC1(C)CC(=O)C(C(C#Cc2ccccc2)C2=C(O)CC(C)(C)CC2=O)=C(O)C1 | inconclusive [cytotoxic, single point] | – |
| COCCNC(=O)CSC1=N/C(=C/c2ccc(Cl)c(Cl)c2)C(=O)N1c1ccccc1F | inconclusive [cytotoxic, single point] | – |
| CCN(CC)CCCN(C(=O)c1ccco1)c1nc(-c2ccc(C)cc2)cs1 | inconclusive [cytotoxic, single point] | – |
| CCC1=NN(C(=O)C(=O)Nc2ccc(Br)cc2)C(O)(C(F)(F)F)C1 (stereo not given) | inconclusive [cytotoxic, single point] | – |
| CC(C)c1cc(C(=O)Nc2sc3c(c2C#N)CCC3)no1 | inconclusive [cytotoxic, single point] | – |
| CCOC(=O)N1CCN(C(c2ccnc3ccccc23)c2nnnn2-c2ccc3c(c2)OCCO3)CC1 (stereo not given) | inconclusive [cytotoxic, partial curve] | – |
| Cc1ccc(N/C=C/C(=O)C(C)(C)C)c(O)c1 | inconclusive [cytotoxic, single point] | – |
| CCCOc1ccc(C(F)(F)F)cc1NS(=O)(=O)c1ccc(Cl)nc1 | inconclusive [cytotoxic, partial curve] | – |
| CCCCCc1nc2sc3c(c2c(=O)n1NC(=O)c1ccc([N+](=O)[O-])cc1)CC(C)(C)OC3 | active: 5.8 µM | – |
| COc1cc(/C=N/NC(=O)c2cc(-c3ccccc3OC(C)C)nc3ccccc23)ccc1O | inconclusive [cytotoxic, partial curve] | – |
| Cc1cccc(C)c1NC(=S)N(CCCN1CCOCC1)Cc1cccnc1 | inconclusive [rising, single point] | – |
| CNC(C)C(=O)NC(C(=O)N1CCCC1C(=O)NNc1ccccc1)C(C)C (stereo not given) | active: 2.31 µM | – |
| COC1=C(Nc2ccc(O)cc2)C(=O)c2ccccc2C1=O | active: 23.1 µM | – |
| COc1ccc(S(=O)(=O)N2CCSC2c2ccc(OC)c(OC)c2)cc1 (stereo not given) | inactive | – |
| COc1ccc(NC(=O)CCN2C(=O)[C@@H]3[C@H](C2=O)[C@H]2C=C[C@@H]3C2)cc1 | inconclusive [cytotoxic, partial curve] | – |
| CCc1nc2c(OCCC3CCCCC3)cccn2c1N(C)C(=O)c1ccc(OC)cc1 | inconclusive [cytotoxic, single point] | – |
| COc1ccc(-c2cc3nc(CCl)[nH]c(=O)c3s2)cc1 | active: 16.4 µM | – |
| CC(=O)N(O)c1ccc(C=Cc2ccccc2)cc1 | inconclusive [cytotoxic, single point] | – |
